Laboratory results: PMC6919601, “Identification of Plasmodium dipeptidyl aminopeptidase allosteric inhibitors by high throughput screening” (PLoS ONE, 2019)
About 230 (0.21%) of roughly 110,000 compounds showed an effect of 50% or more. Some of the results follow.

What follows are compounds tested against DPAP1 (Plasmodium falciparum, UniProt Q8IIJ9) (assay: primary screen, percent inhibition; read by cleavage of a fluorogenic dipeptide substrate; higher = more effect of the substance).
Design: species or system P. falciparum D10 trophozoite lysates; single well
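Further: 30 min substrate incubation versus DMSO and 10 µM JCP410 controls.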

Sequence of DPAP1 (Q8IIJ9 whole entry, looked up): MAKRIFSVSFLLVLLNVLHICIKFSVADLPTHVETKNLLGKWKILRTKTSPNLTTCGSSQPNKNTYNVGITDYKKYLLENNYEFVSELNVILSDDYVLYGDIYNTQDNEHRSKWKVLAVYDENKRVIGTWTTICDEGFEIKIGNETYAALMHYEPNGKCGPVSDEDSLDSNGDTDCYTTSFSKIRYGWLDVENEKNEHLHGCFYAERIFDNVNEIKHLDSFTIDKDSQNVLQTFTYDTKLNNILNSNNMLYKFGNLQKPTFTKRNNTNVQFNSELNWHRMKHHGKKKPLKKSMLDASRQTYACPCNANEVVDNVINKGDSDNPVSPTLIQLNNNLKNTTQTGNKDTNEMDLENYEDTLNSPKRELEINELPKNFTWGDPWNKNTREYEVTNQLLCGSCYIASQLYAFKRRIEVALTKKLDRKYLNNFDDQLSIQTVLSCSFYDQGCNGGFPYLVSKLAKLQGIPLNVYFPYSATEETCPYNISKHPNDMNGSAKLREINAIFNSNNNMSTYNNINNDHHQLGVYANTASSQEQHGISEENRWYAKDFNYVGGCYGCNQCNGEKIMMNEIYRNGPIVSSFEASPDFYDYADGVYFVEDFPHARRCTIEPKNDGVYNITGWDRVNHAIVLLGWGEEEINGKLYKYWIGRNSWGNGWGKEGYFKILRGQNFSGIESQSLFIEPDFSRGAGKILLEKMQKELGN

Row | SMILES | % Inhibition @ 10 uM [%]
1 | Nc1ccc2nc(SCC(=O)Nc3cccc(C(F)(F)F)c3)sc2c1 | 6.1
2 | CC1CC(C)CN(CCCNC(=O)C2CCN(S(=O)(=O)N3CCCCC3)CC2)C1 (stereo not shown) | -3.12
3 | CCC1CCCCN1CCCNC(=O)CS(=O)Cc1nc(-c2ccc(OC)c(OC)c2)oc1C (stereo not shown) | -4.71
4 | Cc1ccc(/C=C/C2=NC(=C\c3cccc(Cl)c3)/C(=O)O2)cc1 | 9.23
5 | CSCCC(C(=O)Nc1ccc(Cl)cc1)N1C(=O)c2ccccc2C1=O (stereo not shown) | 0.851
6 | O=CN1CCN(CC(c2ccccc2)c2ccccc2)CC1 | 1.88
7 | CCN1CCC(C#N)(NC(=O)[C@H](Cc2c(F)cccc2F)NC(=O)c2ccc(-c3c(Cl)cccc3Cl)nc2)CC1 | -3.14
8 | Cc1c(C(=O)N2CCCCC2)sc(N)c1C#N | -2.97
9 | O=C1C2CC=C(Cl)CC2C(=O)N1CCCN1CCOCC1 (stereo not shown) | -7.23
10 | COc1cccc2cc(C(=O)CS(=O)(=O)c3ccc(Br)cc3)c(=O)oc12 | 8.35
11 | CCOc1ccc(C2CC(=O)NC(SCC(=O)Nc3ccccc3)=C2C#N)cc1 (stereo not shown) | 2.01
12 | CCOc1ccc(S(=O)(=O)Nc2cc(Cl)ccc2OC)cc1 | -0.116
13 | CN(C)/C=C/C(=O)c1nnn(-c2ccccc2)c1Nc1ccccc1 | 0.634
14 | Cc1noc(C)c1S(=O)(=O)N1CCC(C(=O)NC2CCN(Cc3ccccc3)CC2)CC1 | 3.33
15 | CN(CCNC(=O)Cn1ncc2c3ccccc3n(Cc3ccccc3F)c2c1=O)C1CCCCC1 | 3.4
16 | CC(C)Cc1cc(-c2ccc(Cl)cc2)c(C#N)c(N)n1 | 1.88
17 | Cc1ccc(C(=O)Nc2cccc3ccccc23)cc1[N+](=O)[O-] | 0.467
18 | CCCCNC(=O)Cn1c(=O)c2cccn2c2cccnc21 | -0.677
19 | COc1ccc(-n2cccc2/C=C2/C(=O)NC(=O)N(Cc3ccco3)C2=O)cc1Cl | -3.35
20 | COc1ccc(C2NC(=O)Cc3cc(OC)c(OC)cc32)cc1 (stereo not shown) | 1.72
21 | Oc1ncnc2sc3c(c12)CCN(Cc1ccccc1)C3 | 6.74
22 | Cc1ccc(NC(=O)c2ccc(-c3ccccc3)cc2)cc1O | -2.65
23 | O=C(Nc1ccccc1)Nc1ccc2c(c1)OCO2 | 5.85
24 | CCOC(=O)N1CCC(N2CCN(c3ncccn3)CC2)CC1 | 0.217
25 | COc1ccc(C(=O)N2CCN(c3ccccc3)CC2)cc1OC | -1.96

Row | SMILES | % Inhibition @ 10 uM [%]
26 | Cc1cc(O)nc(SCC(=O)O)n1 | -2.75
27 | CCN(CC)S(=O)(=O)c1ccc(NC(=O)COc2ccccc2C)cc1 | -0.116
28 | C=CCNC(=O)c1cc(-c2ccco2)on1 | -0.591
29 | Cc1cc(OCC(=O)Nc2ccc(S(=O)(=O)Nc3ccc(F)cc3)cc2)ccc1Br | -1.17
30 | CC(C)(CO)NC(=O)c1ccc(Cl)c(S(=O)(=O)N2CCCCC2)c1 | -0.467
31 | COc1ccc(N2C(N)=C(C#N)C(c3ccsc3)C3=C2CCCC3=O)c(OC)c1 (stereo not shown) | -4.41
32 | Cn1c(=O)c2nc(NCCCOC(=O)c3ccccc3F)[nH]c2n(C)c1=O | -4.78
33 | CCCCSc1nc(-c2ccccc2)nc2c1Cc1c(CO)cnc(C)c1O2 | 3.02
34 | CCOC(=O)C1=C(CNCCN2CCOCC2)NC(=O)NC1c1cc(C)ccc1C (stereo not shown) | -0.403
35 | Cc1ccc(C(=O)NCCn2cccc2)cc1 | 5.76
36 | CCOc1ccc(OCCn2c(SCC(=O)O)nc3c(N)ncnc32)cc1 | -3.5
37 | Oc1nnc(SCc2ccccc2)c(O)n1 | -1.29
38 | Cc1ccc(-c2csc(-c3cc4cc([N+](=O)[O-])ccc4oc3=O)n2)c(C)c1 | -4.31
39 | CNS(=O)(=O)c1cn(CC(=O)NCC2CCCO2)cc1S(=O)(=O)NC (stereo not shown) | -7.47
40 | Cc1oncc1C(=O)Nc1ccc2ccccc2c1 | 8.5
41 | CCOC(=O)N1CCC(N2CNc3c(c(=O)n(C)c(=O)n3C)C2)CC1 | -1.08
42 | COCCCNS(=O)(=O)c1ccc(-c2ccc(S(=O)(=O)NCCCOC)cc2)cc1 | -4.32
43 | O=C(CCc1ccc(S(=O)(=O)NC2CCCCC2)cc1)NCc1ccccc1 | 0.161
44 | O=C(O)/C=C/C(=O)N(Cc1ccccc1)Cc1ccccc1 | 2.38
45 | COC(=O)c1ccc(Cl)c(-c2ccc(C(=O)N[C@@H](C[C@H](C)c3ccccc3)C(=O)NCC#N)cc2)c1 | 16.9
46 | O=C(NCc1ccc(F)cc1)c1ccc2ccccc2c1 | 1.88
47 | CN(C)CC1CSCCC1(O)c1cccc(C(F)(F)F)c1 (stereo not shown) | 9.01
48 | Oc1cc(C2CCNCC2)[nH]n1 | -6.62
49 | COc1ccccc1C1NCCc2c1[nH]c1ccccc21 (stereo not shown) | 3.31
50 | O=C(CN1CCCCC1)NC12CC3CC(CC(C3)C1)C2 | -0.711

Row | SMILES | % Inhibition @ 10 uM [%]
51 | CN1CCN(c2nc(-c3cccc(C(=O)NC4(C(=O)NCC#N)CCCCC4)c3)cs2)CC1 | -3.04
52 | CC(C)(C)c1ccc(C(=O)Nc2ccc(F)cc2)cc1 | 0.247
53 | CCn1cnc2sc(C(=O)N3CCN(Cc4ccc5c(c4)OCO5)CC3)c(C)c2c1=O | -1.48
54 | COc1cc(NC(=O)c2ccc(OCc3ccccc3)cc2)ccc1NC(=O)c1ccco1 | 3.81
55 | Cc1ccccc1CSc1nc2nccnc2c(=O)n1Cc1cccs1 | -5.66
56 | COc1cccc2c1OC(c1cccs1)N1N=C(c3ccccc3O)CC21 (stereo not shown) | 6.5
57 | N#Cc1c(NC(=O)c2noc3c2CCc2ccccc2-3)sc2c1CCCC2 | -1.21
58 | Cc1nc2c(C(=O)N3CCOCC3)cnn2c(C)c1Cc1ccc(Cl)cc1 | -2.26
59 | Fc1ccccc1C1CC(c2ccc(Br)cc2)=NN1c1ccc(Br)cc1 (stereo not shown) | -11.1
60 | CCCOc1ccc(C2NC(=O)NC(C)=C2C(=O)OC)cc1 (stereo not shown) | 2.25
61 | CN(C)CCCN(CCCN(C)C)Cc1ccccc1O | 3.48
62 | CN(Cc1ccccc1)C(=O)CN(C1CCCCC1)S(=O)(=O)c1ccc(Cl)cc1 | -3.41
63 | CCSc1nc2ccccc2n1Cc1ccc(C(=O)OC)cc1 | 0.883
64 | Cc1cc(C)c(S(=O)(=O)Nc2ccc(Cl)cc2)c(C)c1 | 9.88
65 | CSc1nn(-c2cc(Oc3ccccc3C)ncn2)c(N)c1C(N)=O | -3.37
66 | O=C(CC(c1ccccc1)c1ccccc1O)NCc1ccccc1Cl (stereo not shown) | -0.0626
67 | Cc1ccc(S(=O)(=O)N(C)c2ccc(C(=O)NC3CC3)cc2)cc1 | -6.58
68 | CC1CN(C)C(C)c2c1oc1ccc([N+](=O)[O-])cc21 (stereo not shown) | 1.63
69 | Cc1ccc(S(=O)(=O)N2CCN(C)CC2)c2nsnc12 | 5.3
70 | COc1ccc(C2c3c(n(C)c(=O)n(C)c3=O)N=C3c4ccccc4C(=O)C32)cc1OC (stereo not shown) | -4.12
71 | O=C1C(/C=N/Cc2cccs2)C(C(F)(F)F)=NN1c1nc2ccccc2s1 (stereo not shown) | -2.39
72 | CC(C)(C)C(=O)Nc1cc(C(=O)O)cc(C(=O)O)c1 | -2.63
73 | Cc1onc(-c2ccccc2Cl)c1C(=O)N1CCN(C)CC1 | -3.91
74 | CSc1ccc(/C=C2\N=C(c3ccc(C)c(C)c3)OC2=O)cc1 | 0.997
75 | Cn1ncc(Br)c1C(=O)Nc1sc2c(c1C(N)=O)CCC(C(C)(C)C)C2 (stereo not shown) | 1.02

Row | SMILES | % Inhibition @ 10 uM [%]
76 | Cn1c(SCc2ccc(F)cc2)nc2ccc(C(=O)N3CCN(c4ncccn4)CC3)cc21 | -0.495
77 | CCCCCc1ccc(-c2ccc(O)nn2)cc1 | 7.55
78 | CCc1noc(C)c1C(=O)Nc1cc(C(F)(F)F)ccc1F | 1.59
79 | CCCNC(=O)CN(c1cc(C)ccc1C)S(=O)(=O)c1ccccc1 | 0.87
80 | O=C(Nc1c(-c2ccccc2)nc2ccccn12)c1ccccc1 | 3.31
81 | O=C(CC1(O)C(=O)Nc2c(Cl)ccc(Cl)c21)c1ccc(Cl)cc1 (stereo not shown) | 1.86
82 | COc1ccc(C2C(C#N)=C(N)Oc3[nH]nc(C)c32)cc1COc1ccc(C)cc1 (stereo not shown) | 5.9
83 | COc1cccc(C2=NS(=O)(=O)N(C)C(C(=O)N3CCN(C)CC3)=C2)c1 | -1.06
84 | CN(c1cccc(NS(=O)(=O)c2ccc(Br)cc2)c1)S(C)(=O)=O | -4.7
85 | CC(=O)Nc1cc(NC(C)=O)[nH]n1 | 0.66
86 | CC1(C)O[C@H]2[C@@H](O1)[C@@H](C(=O)Nc1nccs1)O[C@@H]1OC(C)(C)O[C@@H]12 | 1.64
87 | CC(C)N(Cc1ccccc1)S(=O)(=O)c1ccc2nc(O)ccc2c1 | 0.244
88 | CCC(CC)COC(=O)C1=C(C)NC(=O)CC1c1ccccc1C (stereo not shown) | 3.5
89 | COc1ccc(CC(=O)Nc2sc3c(c2C(N)=O)CCC(C)C3)cc1OC (stereo not shown) | 3.67
90 | COc1cc(C(=O)N2N=C(C3CC3)CC2(O)C(F)(F)F)cc(OC)c1OC (stereo not shown) | -0.63
91 | O=C1OC(c2ccco2)=N/C1=C\c1ccc(Cl)cc1Cl | -6.6
92 | O=CN1CCN(Cc2ccccc2Br)CC1 | -5.43
93 | O=C(Nc1ccc(N2CCN(C(=O)c3cccs3)CC2)cc1)c1cccc(Cl)c1 | -2.29
94 | O=C(c1ccncc1)N(Cc1ccccc1)Cc1ccccc1 | -1.1
95 | O=C(Nc1ccccc1C(=O)N1CCOCC1)c1cccc(F)c1 | 2.48
96 | Clc1ccc(CNC2CCN(CCc3ccccc3)CC2)cc1Cl | -1.5
97 | Cc1cccc(-n2cc(-c3ccccc3)nc2SCC(=O)Nc2nccs2)c1 | 43.6
98 | Oc1ccc(-c2nc(-c3ccc(O)cc3)c(-c3ccccc3)[nH]2)cc1 | 3.66
99 | Nc1ccccc1-c1nc2ccccc2[nH]1 | -1.69
100 | CCC(C)NC(=O)C1=CC(c2cccc(OC)c2)=NS(=O)(=O)N1C (stereo not shown) | 2.32
